In all, about 81,000 sequences were measured (“one-hybrid fitness for binding NBS DNA”: median about -0.1, highest 2% from about 0.36 on). The list shows a part of the results.
B1: Caulobacter ParB omega fusion; a variant is named by its letters at X, in order, B8GW30 (parent)
chain: MESVVVGEPGMSEGRRGLGRGLSALLGEVDAAPAQAPGEQLGGSREAPIEILQRNPDQPRRTFREEDLEDLSNSIREKGVLQPILVRPSPDTAGEYQIVAGERAWRAAQRAGLKTVPIMVRELDDLAVLEIGIIENVQRADLNVLEEALSYKVLMEKFERTQENIAQTIGKSXSHVANXMRLLXLPDEVQSYLVSGELTAXHARAIAAAADPVALAKQIIEGGLSVRETEALARKAPNLSAGKSKGGRPPRVKDTDTQALESDLSSVLGLDVSIDHRGSTGTLTITYATLEQLDDLCNRLTRGI

Variants of: B1
Experiment: one-hybrid fitness for binding NBS DNA (the Noc-binding site; scaled: cognate 1, non-cognate 0); higher = stronger binding
Details: with NBS DNA site
How it was run: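 The reporter was HIS3, with the binding site 19 bp from the promoter, in E. coli USO used for bacterial one-hybrid selection of Caulobacter ParB libraries with four specificity codons randomised. Growth was on M9 lacking histidine, with 0.1 mM IPTG and 5 mM 3-AT, for 48 hours at 37°C. Illumina sequencing covered plasmids before and after selection; three replicate libraries were pooled and variants with under 10 reads dropped. A fitness score is the log change in variant-to-wild-type read ratio, rescaled to the cognate and non-cognate references.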

Row | Variant | one-hybrid fitness for binding NBS DNA
1 | RVQF | ≤ 0.2
2 | LHPM | ≤ 0.2
3 | LVWR | ≤ 0.2
4 | STWS | ≤ 0.2
5 | PQPA | ≤ 0.2
6 | DVCS | ≤ 0.2
7 | LCVG | ≤ 0.2
8 | LGNN | ≤ 0.2
9 | EAIT | ≤ 0.2
10 | CNRL | ≤ 0.2
11 | CTLL | ≤ 0.2
12 | EWHT | ≤ 0.2
13 | YLQL | ≤ 0.2
14 | HHWI | ≤ 0.2
15 | SVHR | ≤ 0.2
16 | NSDM | ≤ 0.2
17 | WPRT | ≤ 0.2
18 | QHVS | 0.221
19 | TWRS | ≤ 0.2
20 | MYPR | ≤ 0.2
21 | EQQR | ≤ 0.2
22 | MLNL | ≤ 0.2
23 | WSTM | ≤ 0.2
24 | ILFG | ≤ 0.2
25 | GSSA | ≤ 0.2
26 | SGTH | ≤ 0.2

Row | Variant | one-hybrid fitness for binding NBS DNA
27 | GHWR | ≤ 0.2
28 | LGRY | ≤ 0.2
29 | IFQI | 0.203
30 | CEMF | ≤ 0.2
31 | TLGH | ≤ 0.2
32 | PLIR | ≤ 0.2
33 | NDPQ | ≤ 0.2
34 | RREL | ≤ 0.2
35 | HCSV | ≤ 0.2
36 | QTMM | ≤ 0.2
37 | KIES | ≤ 0.2
38 | KPWQ | ≤ 0.2
39 | CRHV | ≤ 0.2
40 | YMTF | ≤ 0.2
41 | LDYW | ≤ 0.2
42 | WIRM | ≤ 0.2
43 | WVPM | ≤ 0.2
44 | DDVG | ≤ 0.2
45 | MARW | ≤ 0.2
46 | MTRW | ≤ 0.2
47 | RTSK | ≤ 0.2
48 | EGQV | ≤ 0.2
49 | DIRY | ≤ 0.2
50 | FKTR | ≤ 0.2
51 | NSWF | ≤ 0.2
52 | MFKC | ≤ 0.2

Row | Variant | one-hybrid fitness for binding NBS DNA
53 | VFLR | ≤ 0.2
54 | DMVA | ≤ 0.2
55 | FGQY | ≤ 0.2
56 | NCVK | ≤ 0.2
57 | HQSC | ≤ 0.2
58 | DAGL | ≤ 0.2
59 | AVQC | ≤ 0.2
60 | PLDT | ≤ 0.2
61 | LWQR | ≤ 0.2
62 | PPVA | ≤ 0.2
63 | PDNC | ≤ 0.2
64 | KHLD | ≤ 0.2
65 | YFWL | ≤ 0.2
66 | IIGK | ≤ 0.2
67 | WPSG | ≤ 0.2
68 | THTW | ≤ 0.2
69 | GWIC | ≤ 0.2
70 | WRPS | ≤ 0.2
71 | YLHS | ≤ 0.2
72 | GASF | ≤ 0.2
73 | WEQG | ≤ 0.2
74 | NFSN | ≤ 0.2
75 | LRPK | ≤ 0.2
76 | TFNT | ≤ 0.2
77 | QRDD | ≤ 0.2
78 | RLSS | 0.411

Row | Variant | one-hybrid fitness for binding NBS DNA
79 | LAGK | ≤ 0.2
80 | IGED | ≤ 0.2
81 | FYNR | ≤ 0.2
82 | PMKS | ≤ 0.2
83 | MVLL | ≤ 0.2
84 | LHYG | ≤ 0.2
85 | TPMK | ≤ 0.2
86 | ALRM | ≤ 0.2
87 | GSKS | ≤ 0.2
88 | WSCF | ≤ 0.2
89 | PKPP | ≤ 0.2
90 | AGNC | ≤ 0.2
91 | FEPC | ≤ 0.2
92 | TMHR | ≤ 0.2
93 | QMHV | ≤ 0.2
94 | NTAM | ≤ 0.2
95 | TMCT | ≤ 0.2
96 | YNCC | ≤ 0.2
97 | GEYG | ≤ 0.2
98 | QWVK | ≤ 0.2
99 | RCAG | ≤ 0.2
100 | TSES | ≤ 0.2
101 | EMSC | ≤ 0.2
102 | QCMP | ≤ 0.2
103 | RMCS | 0.383
104 | SMKY | ≤ 0.2

Row | Variant | one-hybrid fitness for binding NBS DNA
105 | NTPN | ≤ 0.2
106 | QRGR | 1.04
107 | RNNL | ≤ 0.2
108 | PRDM | ≤ 0.2
109 | GIMV | ≤ 0.2
110 | CKTD | ≤ 0.2
111 | IKLR | ≤ 0.2
112 | WVGW | ≤ 0.2
113 | PYDS | ≤ 0.2
114 | IFMR | ≤ 0.2
115 | PMLQ | ≤ 0.2
116 | QAFR | 0.427
117 | TKCW | ≤ 0.2
118 | YNVR | ≤ 0.2
119 | KWHY | ≤ 0.2
120 | NNDN | ≤ 0.2
121 | AVQT | ≤ 0.2
122 | HCSF | ≤ 0.2
123 | AFGR | ≤ 0.2
124 | AQYS | ≤ 0.2
125 | AEKE | ≤ 0.2
126 | STHS | ≤ 0.2
127 | QSVQ | 0.291
128 | NRLC | ≤ 0.2
129 | CLRT | ≤ 0.2
130 | KRTF | ≤ 0.2

Row | Variant | one-hybrid fitness for binding NBS DNA
131 | QSPN | ≤ 0.2
132 | HKPF | ≤ 0.2
133 | EQCG | ≤ 0.2
134 | HVTA | ≤ 0.2
135 | PGSE | ≤ 0.2
136 | GLFS | ≤ 0.2
137 | IWLT | ≤ 0.2
138 | VCYT | ≤ 0.2
139 | HKHQ | ≤ 0.2
140 | TERL | ≤ 0.2
141 | QQAP | ≤ 0.2
142 | ISFS | ≤ 0.2
143 | KSRV | ≤ 0.2
144 | KYAV | ≤ 0.2
145 | SRLQ | ≤ 0.2
146 | AHHI | ≤ 0.2
147 | RNEN | ≤ 0.2
148 | TVWS | ≤ 0.2
149 | SYMG | ≤ 0.2
150 | IHFS | ≤ 0.2
151 | VFTF | ≤ 0.2
152 | QVPH | ≤ 0.2
153 | ELFW | ≤ 0.2

From a collection of fitness landscapes (doi:10.1016/j.celrep.2020.107928)
